From the supplement of paper PMC3334620
Whole data set: some 33,000 sequences, median “E-score (-0.5 to 0.5)” near -0.035, cut for the highest 2% near 0.35. The list shows a part of the results.

biological target: T1, Pdr3 (UniProt P33200); assay: PBM E-score (8-mer binding enrichment) (E-score (-0.5 to 0.5)); higher = stronger / more preferred TF binding; most listed sequences are background and not binding sites; conditions: protein concentration: 200 nM; construct: GST-full length
T1 sequence: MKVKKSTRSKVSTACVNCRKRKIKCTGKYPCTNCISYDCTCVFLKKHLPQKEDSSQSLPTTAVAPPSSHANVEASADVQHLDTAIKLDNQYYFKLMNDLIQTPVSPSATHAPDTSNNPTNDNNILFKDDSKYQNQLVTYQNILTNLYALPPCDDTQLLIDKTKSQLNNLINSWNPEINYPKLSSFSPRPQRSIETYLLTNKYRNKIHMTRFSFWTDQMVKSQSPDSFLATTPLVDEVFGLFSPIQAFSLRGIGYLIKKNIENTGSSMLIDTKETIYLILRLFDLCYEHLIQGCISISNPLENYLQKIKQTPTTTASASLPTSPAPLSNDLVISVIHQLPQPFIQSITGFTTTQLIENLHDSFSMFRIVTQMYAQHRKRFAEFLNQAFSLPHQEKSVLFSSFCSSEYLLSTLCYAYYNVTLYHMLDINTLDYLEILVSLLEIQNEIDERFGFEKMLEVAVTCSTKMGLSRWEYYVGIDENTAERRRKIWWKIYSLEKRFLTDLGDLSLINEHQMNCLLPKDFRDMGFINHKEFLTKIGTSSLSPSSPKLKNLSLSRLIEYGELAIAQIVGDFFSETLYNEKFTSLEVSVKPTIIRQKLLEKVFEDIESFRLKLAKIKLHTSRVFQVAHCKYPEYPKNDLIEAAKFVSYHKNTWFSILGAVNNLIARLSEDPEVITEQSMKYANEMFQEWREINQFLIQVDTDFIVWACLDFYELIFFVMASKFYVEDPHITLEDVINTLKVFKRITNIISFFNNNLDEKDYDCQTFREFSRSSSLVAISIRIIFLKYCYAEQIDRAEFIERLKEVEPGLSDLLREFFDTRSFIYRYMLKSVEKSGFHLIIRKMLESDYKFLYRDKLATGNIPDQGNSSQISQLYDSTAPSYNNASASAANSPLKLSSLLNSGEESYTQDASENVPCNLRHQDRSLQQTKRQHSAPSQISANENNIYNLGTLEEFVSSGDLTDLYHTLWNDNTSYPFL
Summary of the method: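 Universal all-10-mer Agilent arrays, fresh or stripped once, were converted to double-stranded form by primer extension. GST-tagged yeast transcription factors from PURExpress in vitro transcription/translation, full-length or DNA-binding domain only, were applied at about 100-200 nM and detected with fluorescent anti-GST. After masliner normalisation, the Universal PBM Analysis Suite scored each ungapped eight-base word together with its reverse complement by E-score.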

Sequence | PBM E-score
GAAGGATC | 0.0085
ACCACGTA | -0.182
CGTGAGCA | -0.0989
CAATACCG | 0.13
ACTTCTCA | -0.287
GACAGTGC | 0.125
CGCTTCCA | -0.00125
GTTTGGAA | -0.0486
ATTTTACC | 0.194
GGACAGAC | 0.116
CGCGACAC | 0.145
ATAGGCGG | 0.216
AACTATAT | -0.0385
AGTAGCTG | -0.132
CGTGCTAG | -0.276
GAGGCGTA | -0.0236
CGTGTCAA | -0.205
CAGTCCCG | 0.273
GCGATTAA | 0.079
TCAGACCA | -0.0674
GAACTAAA | 0.0787
AGCTTGAA | -0.0457
ATCATCTG | 0.0534
AAGATTTC | 0.156
ACCATTTG | -0.0766

Sequence | PBM E-score
ACTTCGAT | 0.046
CGCTACTC | 0.0433
AAGGGGTG | -0.187
GCCTGCAA | -0.182
AGTGTAGC | -0.0872
AGAGCTAG | -0.27
CTAGAGGA | -0.269
GTAGTCAC | -0.165
CCGTTCCC | 0.253
ACAGCAAT | 0.00827
GAGCAGCA | 0.0607
ATACGATC | 0.0493
GATCTGCC | 0.0457
AAAGAATC | -0.122
GAATGAGA | 0.18
AGCATGGG | -0.127
GAAAAGTA | 0.0139
AATGTGCA | -0.0886
TTGCGAAA | 0.119
AAGTTTCC | 0.223
AAGCAAGC | 0.019
GTAAATAC | -0.0114
AGTGAGCG | -0.0777
GGAGTGCA | 0.116
AGTATTTA | -0.0356

Sequence | PBM E-score
AGCTAGCT | -0.169
AACACGGT | 0.0475
GAGGAGGC | -0.207
CTGAAACA | -0.17
ATGGTAGA | -0.0968
CTTCAAAC | -0.0379
AGCTAGTA | 0.0296
GCGATGAA | 0.0515
AGAAATAC | -0.034
AGGATACG | -0.206
CTTTCTTC | 0.00121
CGATGTAG | -0.198
AACAAATT | 0.037
CTAACGGA | 0.389
GGAACATA | 0.253
ATCCGTAC | 0.248
ACATGCAA | -0.0141
ACAAGTGG | -0.168
CGATGAAC | 0.123
CCTCGCGA | 0.0886
AGGCGGTC | -0.0419
CCTGTTTA | -0.135
CACGTGGC | -0.308
CGAGTAAG | 0.222
GGACCACC | 0.151

Sequence | PBM E-score
GGCCCACA | 0.091
CTTAAACC | -0.206
GACAATCA | -0.052
AACGATAC | -0.192
GCATCGCA | -0.106
AATTAGAT | 0.0511
GCCGAAAC | 0.0955
GATAGTCC | 0.0432
CCACTCCG | 0.235
GTATTGGA | -0.223
AAGGTTGG | -0.122
GATTGAGA | 0.151
CTTAGTCA | -0.227
AAGCTACG | -0.235
ACCGGATC | 0.34
ATATTCAA | 0.12
GGACAAGA | 0.061
CCTAAGAA | -0.123
GTCCCCCA | -0.19
GCAATGCC | 0.15
CCACGTAA | -0.0761
ACTGACAT | -0.0821
CCTCTAAC | -0.199
GGCTAAAA | -0.166
AGACGAGA | -0.0506

Sequence | PBM E-score
ATAGATCC | 0.169
ATTTTACG | 0.139
CGAATGAG | 0.138
CAGTAATC | -0.139
AGACAAAG | -0.176
AACTTTAT | -0.0312
TAATAACA | 0.0148
GCCATGTA | -0.0585
ACGATCCA | -0.0267
CTGTAGCC | -0.232
GGGCAGGA | -0.00058
AAGCTTCC | -0.0761
ATTATGTC | -0.11
TGTAGCAA | 0.127
GCTCACCA | -0.243
AATTACCA | 0.025
GCCCATAA | -0.0973
CGCTTACA | -0.00791
GAATCGAC | 0.218
CTAACCTA | -0.078
GAGACTGA | 0.00553
GGGACGTA | -0.0312
AAAAGTGT | -0.214
GCTCCCCA | -0.329
CTTGGGCA | 0.0396

Sequence | PBM E-score
ACCCTGCA | 0.0556
CAACATGG | -0.136
ATGGCACG | 0.117
AACGATTA | -0.047
ATCGGCGA | 0.114
ATACGTAT | 0.161
ATAGATTC | -0.0406
ACCGCCGT | 0.114
GCGTAGCA | 0.0185
TAACCCTA | -0.207
CTAAGTAG | -0.202
AGTACCGG | 0.118
AGAATACC | 0.0677
GACCGGGC | 0.0834
CGAGACTC | -0.0603
GAGGTCGC | 0.1
TAGTTTAA | 0.0408
CATGCATG | -0.151
AGTGGCCA | -0.0958
AACTCATT | 0.0859
GACACAGA | 0.0915
CAGCCTAA | -0.25
AAGGGACT | -0.167
AAGACTAT | -0.13
AAGATTCA | 0.0105

Sequence | PBM E-score
CCAACTAC | 0.00948
CCGCTCAG | -0.0398
CCATCGAG | 0.0771
TATTAATA | 0.105
CTCCTCGA | -0.19
ACGGACAC | 0.321
CAACACGG | 0.184
CTTCGCGC | 0.274
CAGGTTCA | -0.16
CTGGACTA | -0.245
CCAAGGAG | 0.0202
CGTGTGAA | -0.0144
GCGATCTA | -0.0287
ATCGAGAC | -0.0995
AGCCATAT | -0.0397
ATCGTGCA | -0.107
AATGGTTA | -0.0805
CCACGCCG | 0.0652
CCCTATAA | -0.032
ACGTACTC | 0.073
TCCATAAA | -0.128
CGATCCTC | -0.0462
